In the supplement of paper PMC3334620:
Over roughly 33,000 sequences, “E-score (-0.5 to 0.5)” has its median near -0.041; the highest 2% begin near 0.37. Some of the results follow.

molecular target: T1, Ecm22 (UniProt Q05958); test: PBM E-score (8-mer binding enrichment) (E-score (-0.5 to 0.5)); higher = stronger / more preferred TF binding; most listed sequences are background and not binding sites; conditions: protein concentration: 200 nM; construct: GST-full length
T1 sequence: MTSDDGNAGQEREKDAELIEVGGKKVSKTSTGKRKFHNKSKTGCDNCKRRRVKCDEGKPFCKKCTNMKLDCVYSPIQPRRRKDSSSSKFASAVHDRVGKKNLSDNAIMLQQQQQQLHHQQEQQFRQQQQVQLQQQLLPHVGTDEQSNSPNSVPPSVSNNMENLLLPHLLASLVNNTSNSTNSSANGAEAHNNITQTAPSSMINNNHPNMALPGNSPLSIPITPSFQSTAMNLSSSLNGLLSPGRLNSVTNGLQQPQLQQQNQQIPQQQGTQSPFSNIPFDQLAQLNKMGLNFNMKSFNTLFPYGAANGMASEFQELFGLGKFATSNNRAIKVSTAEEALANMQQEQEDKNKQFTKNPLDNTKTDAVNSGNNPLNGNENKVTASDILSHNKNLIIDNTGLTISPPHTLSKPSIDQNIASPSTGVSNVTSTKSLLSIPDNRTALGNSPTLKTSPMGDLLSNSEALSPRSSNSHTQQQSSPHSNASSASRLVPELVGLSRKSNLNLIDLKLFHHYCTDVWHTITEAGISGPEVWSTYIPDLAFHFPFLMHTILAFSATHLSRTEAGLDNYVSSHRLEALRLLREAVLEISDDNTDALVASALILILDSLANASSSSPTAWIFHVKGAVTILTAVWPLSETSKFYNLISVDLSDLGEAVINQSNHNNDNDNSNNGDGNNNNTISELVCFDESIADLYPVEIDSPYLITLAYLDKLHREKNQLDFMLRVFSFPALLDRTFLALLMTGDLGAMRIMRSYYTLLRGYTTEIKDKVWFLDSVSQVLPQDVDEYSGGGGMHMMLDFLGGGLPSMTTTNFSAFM
Method in brief: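 For each ungapped eight-base word taken together with its reverse complement, the Universal PBM Analysis Suite assigned an E-score. Binding data came from GST-tagged yeast transcription factors, applied at about 100-200 nM, on universal all-10-mer Agilent arrays made double-stranded by primer extension. Fluorescent anti-GST marked bound protein, and scans were normalised with masliner.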

Row | Sequence | PBM E-score
1 | CCAATAGC | -0.223
2 | CTGGACAG | -0.15
3 | ATGGGAAG | -0.246
4 | CGTCCAAA | 0.0222
5 | AACTTGTG | -0.0165
6 | AGAATCTA | -0.12
7 | AAACGATA | 0.435
8 | ATTTTAGG | -0.0694
9 | ATAGCGTA | 0.15
10 | CTTGCAAG | -0.0454
11 | CTGACGAC | 0.0704
12 | TACCCTGA | -0.169
13 | ATATGTTA | -0.00028
14 | ACAGCATC | -0.0999
15 | AATGAGGA | -0.192
16 | GGGACAGA | -0.127
17 | GATTACAA | 0.0151
18 | ATTGGTCG | 0.0412
19 | CGCGACGC | 0.201
20 | TCAAGCGA | 0.219
21 | CCGGCGCA | -0.0189
22 | CAAGACAC | -0.157
23 | CGTACTCA | 0.3
24 | GGCTTGAC | -0.148
25 | ACAATGAA | -0.0575

Row | Sequence | PBM E-score
26 | CGCTGTGA | -0.136
27 | AGCCGGTA | -0.0104
28 | CCCCCCAG | -0.442
29 | AGAGCTCA | -0.315
30 | ACCTCATA | -0.0907
31 | ATGTGTAG | 0.0568
32 | GCGATCGC | 0.275
33 | GGAGGTAA | -0.0735
34 | CTCGTGTA | 0.332
35 | CAGGTGAC | -0.114
36 | CGGTCCTC | 0.151
37 | CGAAACTA | 0.141
38 | GGTCATGA | -0.0265
39 | AGTGCAAT | -0.0369
40 | CCTCGCGC | 0.215
41 | CGATTTGC | 0.0347
42 | CCTAGACA | -0.213
43 | ATACCTGA | -0.0656
44 | CTCATAAA | -0.0162
45 | ATCTATGA | -0.0161
46 | AGGCCCCG | -0.201
47 | ATCTAGAG | -0.146
48 | AGGCAAGC | -0.0949
49 | ATATACTG | 0.0789
50 | ATTTTTTC | 0.0203

Row | Sequence | PBM E-score
51 | CCTGGTCG | 0.166
52 | CCAAGTAG | -0.114
53 | CATGATAC | 0.138
54 | CGTCCCTA | -0.117
55 | CTGGCTGC | -0.186
56 | CGAGATTC | 0.183
57 | CGAATGAA | 0.185
58 | GAGACCCC | -0.121
59 | ATTTCCTG | -0.145
60 | GGACAGCA | -0.142
61 | CTTTTGCC | -0.0531
62 | AGGGGGGG | -0.334
63 | AGACTTTG | -0.0931
64 | ACTGCTAG | -0.236
65 | CCAAGGAA | -0.068
66 | AATTTTGA | 0.0335
67 | GATCAGTA | 0.183
68 | GATAAAAA | -0.187
69 | CCCGTCGA | -0.0281
70 | AAAGTGTC | 0.0387
71 | ACTATGGA | -0.0773
72 | AGCCCGTA | 0.325
73 | ACGAAGAA | 0.355
74 | ATTCACAG | -0.0952
75 | ATGAGAGG | -0.151

Row | Sequence | PBM E-score
76 | AGAGCTTG | -0.114
77 | GTACGATA | 0.456
78 | GCCACTCC | 0.109
79 | AACGTTTA | 0.319
80 | ACGCCGGA | 0.1
81 | ACGGAATA | 0.101
82 | CCCGTCGC | 0.0859
83 | AAACACCC | -0.0996
84 | CAAAATTA | 0.0914
85 | CCCCAAGG | -0.303
86 | CTGCTTCA | -0.29
87 | AAACATGT | 0.102
88 | CGTCATAA | 0.0154
89 | CCAACTGA | -0.0501
90 | AAATCCAC | -0.0271
91 | GTTGCACA | -0.0354
92 | CACCACTA | 0.0492
93 | GTAGATAC | 0.0534
94 | CAGGACCC | -0.245
95 | CGCAGTGA | 0.0367
96 | ATTGTAAC | 0.0017
97 | GCAGGTCC | 0.0428
98 | CCAGGACG | -0.15
99 | ACATGACG | -0.0309
100 | CCACGAAC | 0.201

Row | Sequence | PBM E-score
101 | GAATCTAC | -0.0696
102 | CTTAGTTC | 0.0311
103 | ACCGTTCT | 0.135
104 | AAGACGGC | -0.3
105 | GAGTGCAA | 0.151
106 | TCAAAGGA | -0.232
107 | ACCACAGT | -0.0614
108 | CGCAATGC | -0.027
109 | ATGTTATG | -0.0518
110 | AAGCTGAG | -0.289
111 | CCAGACTC | -0.0799
112 | TATAGTCA | 0.134
113 | GTATGGTA | 0.178
114 | CTAAGAGA | -0.206
115 | CCCCTAGG | -0.307
116 | CGAGAACC | 0.251
117 | GACAGTAC | 0.0613
118 | GAGAGCAC | -0.00667
119 | AGATCGCG | 0.191
120 | GCAGAAAC | 0.0788
121 | AAGTTACG | 0.324
122 | ACTAAAAG | 0.0157
123 | GACACGCA | 0.0833
124 | GCTAGATA | -0.0347
125 | ACACGCGC | -0.0471

Row | Sequence | PBM E-score
126 | CTAAGGCA | -0.387
127 | AATCGTAG | 0.211
128 | CGTCCCAC | -0.152
129 | GAGTTGCA | -0.258
130 | CTCGAATA | 0.0952
131 | ATGCACCG | -0.0745
132 | AAAGAATT | -0.202
133 | CCGCACAA | 0.102
134 | GTTGACAA | 0.082
135 | CTGCCCAA | -0.263
136 | CACAGGTG | -0.202
137 | AACTACCC | -0.127
138 | ATACGTGC | 0.291
139 | AAGGTAGA | -0.16
140 | AGATTTAA | -0.0578
141 | CAGTGACC | -0.219
142 | CCTGCAAA | -0.095
143 | GCTACTGA | -0.00538
144 | GAAAGAAA | 0.14
145 | AACGGTAA | 0.267
146 | ACTCCCGA | 0.082
147 | GTAGGGTA | -0.0253
148 | TACAAGAA | 0.0978
149 | GTAAGCAC | -0.0903
150 | CCGGGCTA | -0.264

Row | Sequence | PBM E-score
151 | CTAGTCAC | -0.0203
152 | AGTCTACG | 0.104
153 | CAGGGTAG | -0.148
154 | AGCAACAC | -0.00721
155 | GGTCCACC | -0.214
156 | AGCTATCA | -0.0581
157 | GTCCAGAC | -0.196
158 | CTCCTATA | -0.189
159 | ATCATATA | 0.0007
160 | CCACAATC | -0.0722
161 | CGTGCCTC | 0.00389
162 | AGTCCGGC | -0.138
163 | GCACTTAC | -0.0783
164 | TAAGGACA | -0.00602
165 | GAACTGAA | 0.172
166 | ACATAGAG | -0.206
167 | CAGGAAGA | -0.207
168 | ACGTCTGA | 0.0921
169 | CTGACACC | -0.196
170 | ACAATGCT | -0.207
171 | ACGGACCA | 0.25
172 | TGGATTAA | -0.213
173 | AGCCGAAA | 0.0487
174 | CTCCCGTA | 0.285
175 | GGCTTGCA | -0.165

Row | Sequence | PBM E-score
176 | CGCTGACA | -0.118
177 | GTGCTAAC | -0.12
178 | AATTTACC | 0.0593
179 | AATGACTA | -0.217
180 | AAGATGAT | -0.052
181 | CGACCGCA | 0.217
182 | ATGTGGGG | -0.213
183 | AGCTGTAG | -0.12
184 | GGTAGAAC | -0.0103
185 | GCCCCCAA | -0.295
186 | ACATTGGT | -0.303
187 | ACTATAAG | 0.0435
188 | GAGGTGGC | -0.197
189 | CAAAGAGG | -0.216
190 | GATTCATA | -0.0359
191 | AATCGACT | -0.0819
192 | CTAGGAGC | -0.184
193 | CAATAGCC | -0.11
194 | ACGTGACT | -0.141
195 | TGGTTCAA | 0.0379
196 | CCTCGCTC | 0.372
197 | CCTAGCAA | -0.29
198 | GACACGAC | 0.196
199 | CAGTTTAA | -0.0565
200 | ACCTGGGA | -0.194

Row | Sequence | PBM E-score
201 | CCGCAGTA | -0.184
202 | ACATTAGT | 0.0108
203 | GTAAGCAA | 0.0172
204 | AATACTTA | -0.0365
205 | TACGAGGA | 0.466
206 | AATGCAAC | 0.111
207 | CTTTTGGC | -0.116
208 | ATACTTAA | -0.0444
209 | TAATTCGA | 0.108
210 | ATTTCAGC | -0.147
211 | CTGACATC | -0.112
212 | GGCGCGCA | 0.0518
213 | TCCTGCGA | -0.0216
214 | ATGCTTTA | 0.0831
215 | CGGAGGTA | -0.148
216 | AGAGGTCG | 0.0428
217 | AGCTTTTC | -0.0653
218 | CTCGAGTA | 0.114
219 | AGGTTACG | 0.157
